Results: a collection of fitness landscapes (doi:10.1016/j.celrep.2020.107928)
The full ranking holds about 81,000 sequences; the median of “one-hybrid fitness for binding NBS DNA” is about -0.1, and the highest 2% start at about 0.36. Some of the results follow.

B1: Caulobacter ParB omega fusion; a variant is named by its letters at X, in order, B8GW30 (parent)
chain: MESVVVGEPGMSEGRRGLGRGLSALLGEVDAAPAQAPGEQLGGSREAPIEILQRNPDQPRRTFREEDLEDLSNSIREKGVLQPILVRPSPDTAGEYQIVAGERAWRAAQRAGLKTVPIMVRELDDLAVLEIGIIENVQRADLNVLEEALSYKVLMEKFERTQENIAQTIGKSXSHVANXMRLLXLPDEVQSYLVSGELTAXHARAIAAAADPVALAKQIIEGGLSVRETEALARKAPNLSAGKSKGGRPPRVKDTDTQALESDLSSVLGLDVSIDHRGSTGTLTITYATLEQLDDLCNRLTRGI

Variants of: B1
Assay: one-hybrid fitness for binding NBS DNA (the Noc-binding site; scaled: cognate 1, non-cognate 0); higher = stronger binding
Settings: with NBS DNA site
Method in brief: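 Values were rescaled so that cognate is 1 and non-cognate is 0. Each is a fitness, the log change in a variant's read ratio to wild type from Illumina reads of plasmids before and after selection, with three replicate libraries pooled and variants under 10 reads dropped. Selection of the Caulobacter ParB libraries, four specificity codons randomised, used E. coli USO with a HIS3 reporter, site 19 bp from the promoter, on M9-minus-histidine with 0.1 mM IPTG and 5 mM 3-AT for 48 hours at 37°C.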

one-hybrid fitness for binding NBS DNA, 0.221:
QYNY

one-hybrid fitness for binding NBS DNA, 0.439:
RRSH

one-hybrid fitness for binding NBS DNA, 0.44:
RSQR

one-hybrid fitness for binding NBS DNA, 0.491:
QKLR

one-hybrid fitness for binding NBS DNA, 0.497:
QIKS

one-hybrid fitness for binding NBS DNA, 0.323:
QMKW

one-hybrid fitness for binding NBS DNA, 0.413:
QSRQ

one-hybrid fitness for binding NBS DNA, ≤ 0.2:
IVQC
GVVP
FYAW
QCFI
NETC
VHMC
PTEC
PVMR
TRRI
NPIR
VWWS
SGGA
PVWR
RNIK
DDQT
CAFG
AGAL
AKVS
YPHL
EWRS
LPST
IRPA
EQCT
CRGR
ALPL
YGVH
NWKG
RIWL
RSNN
SETY
RWPY
YTKH
ECAR
FGDT
RNAN
LYNF
QIGN
TQTH
ILNQ
EDWY
VREC
DKPR
VWHR
HQPW
NMVW
TYTL
GRRC
HCYM
VWSQ
PYAW
RYLC
AMTN
LPRW
DFAS
YNVG
TSML
PTES
RIFE
TYLD
QAGC
SLYR
HRCL
MATA
SLVS
DAEE
WGAY
ADPS
LIRA
LGER
DALG
IENC
YSQG
KLEH
KPHA
SCRF
QDAL
TGLH
MELL
WWVG
HFHC
VYWT
DSMG
ESRW
MWGS
CRVT
TPHC
PHPM
NSLS
VWMG
YIKV
PVLG
GVPL
EWKG
QEIT
CLPG
LYAL
LSWM
YVTI
RQTG
QFWR
HSDF
VQEG
GCRN
LHMS
GNHR
CSTQ
SING
PLHV
QSGY
EMFA
SGVV
VASW
CQPE
TMQS
SYNT
TKSM
DWVF
QDRN
DTRE
CVRT
TWIS
NTNS
PAGD
ASDA
TPES
WMPR
NGHR
DIPF
LGEC
SQGG
TICS
CKLS
GQPR
PSNP
QCMW
IGMR
RRYI
VEPM
QYYF
TYRW
PYEH
SWST
VNGG
PPPA
KINE
FNPC
KPSA
LAIR
DKLS
NWVC
GAPD
MPHV
NPCP
IAAQ
MALF
GVWT
SPPI
AQRT
FMTY
LEHR
HPTK
TNKY
LCQC
TIGG
PRGK
FYRR
CRLA
HKYA
LDMV
MRPS
QLMN
IQSK
WKPQ
SEQM
VMFS
LPPK
HNIC
SNGR
ISKY
QALV
VPWL
RYLD
NGTE
KHYT
TPSR
SNYH
RMPD
QNEG
SELR
LRFR
SNYR
DSSE
GPNG
ENLL
PNLV
QGAN
CCAI
CVMR
YASE
YSAS
VHKC
KLHW
IGFV
HPKY
PYPN
HKNL
QLQL
LAYL
LVSC
QTCL
KRCK
CTIS
SLCY
DTHD
RDQR
ACCS
SVFR
LWAD
VIGG
CGYG
TRRF
RCCC
WRLR
LEMR
RGMM
WITA
CEDR
LRGC
NEPL
RNME
HTTY
PMCW
LCRA
NGTT
IYEY
QPNL
PMVR
VFDS
IVVD
SYCG
SHTQ
VAHG
RANL
GMGT
NQVR
EKSR
HKHC
QLDM
RMNY
SCPY
PDRQ
PRYL
QDSV
QWPY
EQAG
SPGT
PAHY
MVHI
LLAV
RVRD
SREG
RNAV
HNLG
QLWP
TECG
HAEA
MCYS
PDEC
RTQY
HGKG
DVNR
LWNN
GPAM
HAAR
KFSS
FKLT
PAGR
PGLW
NYLS
HECG
YQVS
WWKG
PTFT
SETS
PNGV
WRMT
HQHG
SCKD

one-hybrid fitness for binding NBS DNA, 0.444:
QTWS

one-hybrid fitness for binding NBS DNA, 0.451:
FAFL

one-hybrid fitness for binding NBS DNA, 0.299:
RNTR

one-hybrid fitness for binding NBS DNA, 0.512:
RFKT

one-hybrid fitness for binding NBS DNA, 0.449:
QQKC

one-hybrid fitness for binding NBS DNA, 0.219:
RTES

one-hybrid fitness for binding NBS DNA, 0.301:
IRCR

one-hybrid fitness for binding NBS DNA, 0.269:
RKKM

one-hybrid fitness for binding NBS DNA, 0.369:
QCNA

one-hybrid fitness for binding NBS DNA, 0.483:
QTDR

one-hybrid fitness for binding NBS DNA, 0.21:
RLIR
